Experimental data taken from PubChem BioAssay AID504832 (National Center for Advancing Translational Sciences (NCATS), 2011).
Hit rate of the full screen: of about 310,000 compounds, about 18,000 (5.8%) were called active. Inconclusive results, whose numbers are uncertain, are shown with a selection of clear calls. Calls follow the shape of the dose curve; as a rule, active = well fitted inhibition curve with a large enough effect; inconclusive = small, poorly fitted or top-dose-only effect, or another doubt; inactive = no such curve, though single readings can be large or run the other way. Potencies of inconclusive entries are left out as doubtful fits.

Test: Primary qHTS for delayed death inhibitors of the malarial parasite plastid, 48 hour incubation
Settings: P. falciparum luciferase growth in erythrocytes; series mostly up to 28.7 µM; activity change, negative = inhibition: at the top concentration
Outline: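 A one-generation exposure of luciferase-tagged malaria parasites in RPMI 1640/Albumax erythrocyte culture, 37 C and 5% CO2. Inhibition is inferred from decreased luminescence after adding detection reagent.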
% is scaled to controls: 0 for no effect and ±100 for the full control effect; potency is read from the fitted curve at half-maximal effect; tags tell the direction and shape of the fitted curve.

| Compound | Potency | activity change, negative = inhibition |
| --- | --- | --- |
| Cc1ccc(NC(=O)c2ccc(N3CCCC3=O)cc2)cc1S(=O)(=O)N1CCCCC1 | inconclusive [inhibitor, partial curve, poor fit] |  |
| COc1ccccc1N1CCN(C(CNC(=O)C2CCCCC2)c2cccnc2)CC1 (stereo not drawn) | inconclusive [inhibitor, single point] |  |
| O=C(Nc1ccc(N2CCN(C(=O)c3ccco3)CC2)cc1)c1ccco1 |  | inactive: -9.2% |
| CC(C)c1[nH]nc2c1C(Cc1ccccc1)C(C#N)=C(N)O2 (stereo not drawn) | inconclusive [inhibitor, partial curve, poor fit] |  |
| CCOCc1c(C(=O)NCc2ccccc2CN2CCCC2)oc2ccccc12 | inconclusive [inhibitor, partial curve] |  |
| COc1ccc(NC(=O)c2ccc3c(c2)C(=O)N(CC2CCCO2)C3=O)cc1 (stereo not drawn) |  | inactive: 12% |
| CCc1cc2c(=O)c(Oc3ccccc3)c(C)oc2cc1O | inconclusive [inhibitor, partial curve] |  |
| Cc1ncc(CO)c(/C=N/NC(=O)c2cccc(S(=O)(=O)N3CCCC3)c2)c1O | inconclusive [inhibitor, single point] |  |
| Cn1cc(C(=O)NCc2cccs2)c(=O)c2cc(S(=O)(=O)N3CCCC3)ccc21 | inconclusive [inhibitor, partial curve] |  |
| Cc1cccc(NS(=O)(=O)c2ccc(C(=O)N3CCN(c4ccccc4O)CC3)cc2)c1C | inconclusive [inhibitor, partial curve] |  |
| C/C(=N\Nc1ccccc1)c1c(O)n(Cc2ccccc2)c(=O)[nH]c1=O |  | inactive: -26.9% |
| CC(=O)Nc1cccc(NC(=O)CSc2nnc(Cc3cccn3C)n2-c2ccc(C)cc2)c1 | inconclusive [inhibitor, single point] |  |
| O=C(CN1C(=O)c2ccc([N+](=O)[O-])cc2C1=O)NC1CCCCCC1 | inconclusive [inhibitor, single point] |  |
| CN1/C(=C\C=C2/C(=O)Oc3ccccc3C2=O)C(C)(C)c2ccccc21 | active: 11.7 µM |  |
| CC(=O)NC(C)Cc1cn(Cc2ccccc2)c2ccccc12 (stereo not drawn) | inconclusive [inhibitor, partial curve, poor fit] |  |
| O=C(Nc1nnc(-c2ccco2)s1)C1CC1 |  | inactive: 45.5% |
| CCOc1cc(/C=N/NC(=O)Nc2ccccc2)ccc1O |  | inactive: 47.8% |
| COc1ccc(C(=O)NCC2CCCCC2)cc1S(=O)(=O)N1CCCC1 | inconclusive [inhibitor, partial curve, poor fit] |  |
| O=C1/C(=C/c2cccnc2)Sc2ccccc21 | inconclusive [inhibitor, single point] |  |
| CCCNc1nc2c(c(=O)n(C)c(=O)n2C)n1Cc1cccc(C)c1 | inconclusive [inhibitor, partial curve, poor fit] |  |
| CC1(C)CC(=O)C2=C(C1)N=C1c3ccccc3C(=O)C1C2c1ccc(Cl)cc1 (stereo not drawn) | inconclusive [inhibitor, partial curve] |  |
| Cc1ccc(C(C(=O)NC(C)(C)C)N(CCCN2CCOCC2)C(=O)c2ccc(-c3ccccc3)[nH]2)o1 (stereo not drawn) |  | inactive: -0.153% |
| O=C(NCc1ccccn1)Nc1ccc(Cl)c(Cl)c1 |  | inactive: 20.3% |

| Compound | Potency | activity change, negative = inhibition |
| --- | --- | --- |
| CCOc1ccc(NC(=O)NC(C)c2ccc3c(c2)OCO3)cc1 (stereo not drawn) | inconclusive [inhibitor, full curve, poor fit] |  |
| Cc1ccc(Nc2nnc(SCC(=O)c3ccc(O)cc3O)s2)cc1 | inconclusive [inhibitor, full curve] |  |
| O=C1/C(=C/Nc2cccc([N+](=O)[O-])c2)CCc2ccccc21 |  | inactive: 203% |
| CCOC(=O)Nc1sc(C)c(C)c1C(N)=O |  | inactive: 9.6% |
| COc1ccccc1NC(=O)c1ccc(Br)c(S(=O)(=O)N2CCCC2)c1 | inconclusive [inhibitor, partial curve] |  |
| O=C(O)c1ccc(CN(c2ccccc2)S(=O)(=O)c2ccccc2)cc1 | inconclusive [inhibitor, single point] |  |
| O=C1OC(Nc2ccc3c(c2)OCO3)c2ccccc21 (stereo not drawn) | inconclusive [inhibitor, single point] |  |
| O=C(c1ccc(C(F)(F)F)cc1)C1CCCN(C(=O)c2cnccn2)C1 (stereo not drawn) |  | inactive: 0% |
| CN(C)c1ccc(/C=N/N=C(N)N)cc1[N+](=O)[O-] | active: 2.08 µM |  |
| Cc1ccc(N=Nc2ccc(O)c3ncccc23)cc1 | active: 0.465 µM |  |
| COC(=O)c1cc(C(=O)NCCN2C(=O)S/C(=C\c3cccs3)C2=O)cc([N+](=O)[O-])c1 |  | inactive: 7.97% |
| O=C(OCc1ccc([N+](=O)[O-])cc1)C1CCN(S(=O)(=O)c2ccccc2)CC1 |  | inactive: 8.49% |
| CC1CC(C)CN(CCCNC(=O)c2c(O)nc3ccccn3c2=O)C1 (stereo not drawn) | active: 4.15 µM |  |
| CCOc1ccc2[nH]cc(C(=O)NCc3ccc(F)cc3)c(=O)c2c1 | inconclusive [inhibitor, partial curve, poor fit] |  |
| Cc1ccc(N2CC(C(=O)Nc3ccc(S(=O)(=O)N4CCCC4)cc3)CC2=O)cc1 (stereo not drawn) | inconclusive [inhibitor, single point] |  |
| COc1ccnc(Oc2ccc(F)cc2)c1C(=O)N/C=N/OCc1ccccc1 | inconclusive [inhibitor, single point] |  |
| CCOC(=O)c1cnc2ccc(F)cc2c1Nc1ccc2c(c1)OCCO2 | active: 9.28 µM |  |
| CCCC(C(=O)NC(C)(C)CC)N(Cc1ccco1)C(=O)CNS(=O)(=O)c1ccccc1 (stereo not drawn) | inconclusive [inhibitor, single point] |  |
| CCCCNC(=O)/C(C#N)=C/c1ccc(F)cc1F |  | inactive: -23% |
| O=C(COC(=O)C12CC3CC(CC(C3)C1)C2)Nc1ccc([N+](=O)[O-])cc1Br | inconclusive [inhibitor, single point] |  |
| O=[N+]([O-])c1cccnc1Sc1n[nH]c(-c2ccc(Cl)cc2)n1 |  | inactive: 59.8% |
| CCCCC(CC)C1OCC(C[N+]2(C)CCOCC2)O1 (stereo not drawn) | inconclusive [inhibitor, single point] |  |
| COCCOC(=O)c1c(NC(=O)CN2CCCc3ccccc32)sc(C(N)=O)c1C | inconclusive [inhibitor, single point] |  |

| Compound | Potency | activity change, negative = inhibition |
| --- | --- | --- |
| CCN(C(=O)CN1CCCCC1C)c1c(N)n(Cc2ccccc2)c(=O)[nH]c1=O (stereo not drawn) | inconclusive [inhibitor, single point] |  |
| CN(C)/C=C(\C(=O)c1ccccc1)c1nnnn1-c1ccccc1 |  | inactive: 11.3% |
| Oc1ccc(/C=N/Nc2ccc(Cl)nn2)c(O)c1O |  | inactive: 15.7% |
| Cc1ccc(-n2nnnc2Sc2ccc(S(=O)(=O)NCCN(C)C)cc2[N+](=O)[O-])cc1 | inconclusive [inhibitor, partial curve] |  |
| CC(Nc1ccccc1N1CCCCC1)C(=O)N1CCc2ccccc21 (stereo not drawn) | inconclusive [inhibitor, partial curve, poor fit] |  |
| CCN(C(=O)Cc1c(C(=O)O)[nH]c2ccccc12)c1ccc(OC)cc1 |  | inactive: -1.06% |
| CCOCc1nnc(NS(C)(=O)=O)s1 | inconclusive [inhibitor, partial curve, poor fit] |  |
| Cc1nnc2n(Cc3ccccc3)c(=O)c3c4c(sc3n12)COC(C)(C)C4 | inconclusive [inhibitor, single point] |  |
| CCN(CC)C(=O)C1CCCN(c2ccc([N+](=O)[O-])cc2[N+](=O)[O-])C1 (stereo not drawn) |  | inactive: -4.58% |
| CCOC(=O)C1C(=O)C=C(c2ccc(C)cc2)CC1c1ccc([N+](=O)[O-])cc1 (stereo not drawn) | inconclusive [inhibitor, single point] |  |
| CCCCCn1c(=NC(=O)c2ccco2)c(C(=O)OCC)cc2c(=O)n3ccccc3nc21 |  | inactive: -38.2% |
| COc1ccc(C2/C=C\CN(C(=O)OCc3ccccc3)CC(=O)N2Cc2ccc(F)cc2)cc1 (stereo not drawn) | inconclusive [inhibitor, single point] |  |
| COc1ccc(-c2nc(CS(=O)CC(=O)NCCN3CCCCC3C)c(C)o2)cc1OC (stereo not drawn) |  | inactive: -4.77% |
| CCCCN(C(=O)C(CCSC)N1C(=O)c2ccccc2C1=O)c1c(N)n(CCC)c(=O)[nH]c1=O (stereo not drawn) | inconclusive [inhibitor, single point] |  |
| COc1cc(C[C@@H](C)N)c(OC)cc1I | inconclusive [inhibitor, single point] |  |
| CC1CCCN(c2c3c(nc4ccccc24)CCCC3)C1 (stereo not drawn) | inconclusive [inhibitor, single point] |  |
| CS(=O)(=O)N1CCc2cc(S(=O)(=O)N3CCN(Cc4ccc5c(c4)OCO5)CC3)ccc21 | inconclusive [inhibitor, partial curve] |  |
| CCOC(=O)[C@H]1[C@H]2COc3ccc(C)cc3[C@@H]2N2C(=O)c3ccc(C)cc3NC(=O)[C@@]12C | inconclusive [inhibitor, partial curve, poor fit] |  |
| Cc1ccc2cc(CN(CC3CCCO3)C(=S)NCc3ccco3)c(=O)[nH]c2c1C (stereo not drawn) | inconclusive [inhibitor, single point] |  |
| Cc1ccc2c(c1)c1c3n2CC(=C2C(=O)OC(C)(C)OC2=O)NC3CCC1 (stereo not drawn) | inconclusive [inhibitor, single point] |  |
| COC(=O)Nc1ccc(S(=O)(=O)N2CCCC(C(=O)Nc3cccc4c3OCCO4)C2)cc1 (stereo not drawn) | inconclusive [inhibitor, partial curve, poor fit] |  |
| CN(C)S(=O)(=O)c1cc(NC(=O)c2cc(=O)c3ccccc3o2)ccc1Cl | active: 10.4 µM |  |
